Some of the results follow.
Each sequence was assayed on PfAP2-HC AP2 domain (GST-tagged) (assay: gcPBM binding intensity (ln(normalized median fluorescence intensity)); higher = stronger DNA binding).
In short: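 Plasmodium falciparum DNA-binding domains carrying a GST tag were expressed in E. coli and applied for 1 h, at about 25 μg on average, to an Agilent 4 × 180k array. The array held primer-extended double-stranded 36-bp intergenic genomic probes together with negative controls, and binding took place in 1× PBS with 1% milk, 0.2 mg/ml BSA, 0.5% salmon testes DNA and 0.03% Triton X-100. An Alexa488 anti-GST antibody detected bound protein, and the array was scanned at 488 nm. Binding intensity is taken as the highest Masliner-normalised natural-log median intensity across replicate spots of either probe orientation.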

Sequence | gcPBM binding intensity (ln)
TAAAAAAATATATATACATGCATAGAAAAAAAAAAA [TGCATGCA_site552] | 9.73
TAATAATAAATTGGTTGTACAACCTTATACAGAATA [XGTACX_site2592] | 9.57
ACACAAAAAATAAAAATATATATATATTATATATAT [CACACA_negctrl_site1489] | 9.75
TTTTAAACAAAAATTTGTACACAATAATTAAATATA [XGTACX_site6755] | 9.43
ATTTAATTTTTTTTTTTTTTTTTTCAATCCCCTTTT [CACACA_negctrl_site1013] | 9.2
CATTTTAAAGAAAATACACACAAAAATAAATATATA [CACACA_site1395] | 9.83
TTTTTTTATTAAAAATGTACAAAAATGAAAAAATAA [XGTACX_site8279] | 9.49
CATATAATTTTATGGGTGCATTTTTTTGTAAGACCA | 9.49
TTAAAAAAAAAAAGGTGTACTATAATTTAATATCAC [XGTACX_site6316] | 9.54
TATATTTACGTATGTCGAACGTTATTTTGAACAACC [CACACA_negctrl_site1261] | 9.52
AATATATAATTTTATAGTACATAATAAAAGAACAGG [XGTACX_site724] | 9.88
TTATATTATGCTTGAATGCACTTTGAAGCACAATCT [GTGCAC_site9789] | 9.45
TTTAATTTTTTTTAAACACACACATTACATTCAAAA [CACACA_site7926] | 9.82
TATTCAACATAATATGCACACAAAAATTATGGAACG [CACACA_site8660] | 9.92
ATCACATAAAATATGAATATATATTTTATATATATA [CACACA_negctrl_site340] | 9.53
CGTTTATATAGTGATGCATGCATTGTTAACATGGTT [TGCATGCA_site418] | 9.6
TTTATACACAAAAAATGTACATATATATAATGAATT [XGTACX_site1195] | 9.64
TGTATGTCTTTATTTTGTACACAATATAAAAAATTA [XGTACX_site5441] | 9.6
CGCACAAAAATATACACACACACATATATATTTATT [CACACA_site3645] | 10.4
AAGGATGATACAACTTGTACATATTTGCTTAATATA [XGTACX_site764] | 9.64
ATATAAATATATTGCACACACAATTATTATTATTAT [CACACA_site7147] | 10
CATGTGCATATTAAATGTACATATATACATATATAC [XGTACX_site857] | 9.6
ATATAGGTATTTAATACACACAAAACTTTCATTCCA [CACACA_site7627] | 9.91

Sequence | gcPBM binding intensity (ln)
AAAGCTAATATTATATGTACTTATATATTTATATAT [XGTACX_site4474] | 9.76
ATATAAATCTACACCGCACACAAAAACAACAAATAT [CACACA_site2506] | 10.5
AAATAAATGAAACACACACACACAAAAAAAAAAAAC [CACACA_site2625] | 10.9
TATAATGTTAAATAATGTACATATTTTTTTTTTTTT [XGTACX_site4721] | 9.4
AACAAATTTTTTTTTCCTTTTTTTTTTTTACTTCAT [CACACA_negctrl_site1214] | 9.53
ATAAACAAAGTTAAATGTACAAAGGGGTAAAAAAAA [XGTACX_site83] | 9.86
ACACAATTGAAATAGTGTACAAAATGTTGTTACATA [XGTACX_site8671] | 9.85
TTATTAACCAAACGCACATGCAAAATATATTATATA [TGCATGCA_site915] | 9.59
AAATAAATAATATGTAAACACACAAAAAATAAAAAT [CACACA_site8307] | 10.3
TTTTTTTTTCGGAAAAGTACAAAACTTTTTTATAAT [XGTACX_site4670] | 9.42
TATATATCAATATGCACACACAAGAAGTAATTATAA [CACACA_site7487] | 10.5
TAAAAAGTATATAAGAGTACACATATTTATAAATAT [XGTACX_site3084] | 9.73
AGACTTTGTACAAACACACACATGAGCACAATATTA [CACACA_site6755] | 10.3
AACAAAATTGAAGGAACACACATACAGATATATATA [CACACA_site4264] | 10.3
TAATAATTAATTAATATAATATTTTTTCATAATTAT [XGTACX_negctrl_site602] | 9.56
ATAGAAAAAATATACACACACTTATTAAATAAAAAT [CACACA_site7540] | 10.1
TTTTTTTTTTTCGGGGGTACTAATATATTATTAATA [XGTACX_site7809] | 9.82
GTTTTTAAGAAAAACACACACTCCTGTTATTTTATA [CACACA_site3696] | 9.89
ATATAATATATATATTGTACATATATTTATAAGCAT [XGTACX_site3726] | 9.59
AATGTGCTCGCTATTACACACTCATTGGGATAAACT [CACACA_site7043] | 9.72
TATATATATATATATTGTACATTTACCAAATTGTGT [XGTACX_site5791] | 9.62
TATATAAATAAATATACACACATATATAAATATACA [CACACA_site2982] | 9.8

Source: the supplement of paper PMC11417369
